According to the supplement of paper PMC8728848:
The list shows a part of the results.

Legend:
Test in all cases: glycan array binding signal (z-score within array); higher = stronger binding
Conditions in all cases: glycan notation: IUPAC condensed, linker removed
[1] = biological target: Neu5Ac(a2-6)Gal(b1-4)GlcNAc(b1-3)Gal(b1-4)GlcNAc(b1-3)GalNAc
Method in brief: (§1)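 Columns mapping to the same glycan were averaged after glycan names were converted to IUPAC-condensed notation. The data come from 3228 arrays in the Consortium for Functional Glycomics database, limited to those with an available protein sequence. Binding is reported as a within-array Z-score averaged across arrays of one protein sequence and across linkers.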

[2] = biological target: Neu5Ac(a2-6)Gal(b1-4)GlcNAc(b1-3)Gal(b1-4)GlcNAc(b1-3)[Neu5Ac(a2-6)Gal(b1-4)GlcNAc(b1-3)Gal(b1-4)GlcNAc(b1-6)]GalNAc
Method in brief: as §1

[3] = biological target: Neu5Ac(a2-6)Gal(b1-4)GlcNAc(b1-3)Gal(b1-4)GlcNAc(b1-6)[Gal(b1-3)]GalNAc
Method in brief: as §1

[4] = biological target: Neu5Ac(a2-6)Gal(b1-4)GlcNAc(b1-3)Gal(b1-4)[Fuc(a1-3)]GlcNAc(b1-3)Gal(b1-4)[Fuc(a1-3)]GlcNAc
Method in brief: as §1

[5] = biological target: Neu5Ac(a2-6)Gal(b1-4)GlcNAc(b1-3)GalNAc
Method in brief: as §1

[6] = biological target: Neu5Ac(a2-6)Gal(b1-4)GlcNAc(b1-3)[Neu5Ac(a2-6)Gal(b1-4)GlcNAc(b1-6)]GalNAc
Method in brief: as §1

[7] = biological target: Neu5Ac(a2-6)Gal(b1-4)GlcNAc(b1-6)GalNAc
Method in brief: as §1

[8] = biological target: Neu5Ac(a2-6)Gal(b1-4)GlcNAc(b1-6)[Gal(b1-3)GlcNAc(b1-3)]Gal(b1-4)Glc
Method in brief: as §1

[9] = biological target: Neu5Ac(a2-6)Gal(b1-4)GlcNAc(b1-6)[Gal(b1-3)]GalNAc
Method in brief: as §1

[10] = biological target: Neu5Ac(a2-6)Gal(b1-4)GlcNAc6S
Method in brief: as §1

Neu5Ac(a2-6)GalNAc = biological target: Neu5Ac(a2-6)GalNAc
Method in brief: as §1

[11] = biological target: Neu5Ac(a2-6)GalNAc(b1-4)GlcNAc
Method in brief: as §1

[12] = biological target: Neu5Ac(a2-6)GalNAc(b1-4)GlcNAc6S
Method in brief: as §1

[13] = biological target: Neu5Ac(a2-6)GlcNAc(b1-4)GlcNAc
Method in brief: as §1

[14] = biological target: Neu5Ac(a2-6)GlcNAc(b1-4)GlcNAc(b1-4)GlcNAc
Method in brief: as §1

Neu5Ac(a2-8)Neu5Ac = biological target: Neu5Ac(a2-8)Neu5Ac
Method in brief: as §1

[15] = biological target: Neu5Ac(a2-8)Neu5Ac(a2-3)Gal(b1-3)GalNAc(b1-4)[Neu5Ac(a2-3)]Gal(b1-4)Glc
Method in brief: as §1

[16] = biological target: Neu5Ac(a2-8)Neu5Ac(a2-3)Gal(b1-3)GalNAc(b1-4)[Neu5Ac(a2-8)Neu5Ac(a2-3)]Gal(b1-4)Glc
Method in brief: as §1

[17] = biological target: Neu5Ac(a2-8)Neu5Ac(a2-3)Gal(b1-4)Glc
Method in brief: as §1

[18] = biological target: Neu5Ac(a2-8)Neu5Ac(a2-3)Gal(b1-4)GlcNAc
Method in brief: as §1

[19] = biological target: Neu5Ac(a2-8)Neu5Ac(a2-3)[Gal(b1-3)GalNAc(b1-4)]Gal(b1-4)Glc
Method in brief: as §1

[20] = biological target: Neu5Ac(a2-8)Neu5Ac(a2-3)[GalNAc(b1-4)]Gal(b1-4)Glc
Method in brief: as §1

[21] = biological target: Neu5Ac(a2-8)Neu5Ac(a2-8)Neu5Ac
Method in brief: as §1

[22] = biological target: Neu5Ac(a2-8)Neu5Ac(a2-8)Neu5Ac(a2-3)Gal(b1-4)Glc
Method in brief: as §1

[23] = biological target: Neu5Ac(a2-8)Neu5Ac(a2-8)Neu5Ac(a2-3)[Gal(b1-3)GalNAc(b1-4)]Gal(b1-4)Glc
Method in brief: as §1

[24] = biological target: Neu5Ac(a2-8)Neu5Ac(a2-8)Neu5Ac(a2-3)[GalNAc(b1-4)]Gal(b1-4)Glc
Method in brief: as §1

[25] = biological target: Neu5Ac(a2-8)Neu5Ac(a2-8)Neu5Ac(a2-8)Neu5Ac(a2-3)[GalNAc(b1-4)]Gal(b1-4)Glc
Method in brief: as §1

[26] = biological target: Neu5Ac(a2-8)Neu5Gc(a2-3)Gal(b1-4)GlcNAc
Method in brief: as §1

[27] = biological target: Neu5Ac(b2-6)Gal(b1-4)GlcNAc
Method in brief: as §1

Neu5Ac(b2-6)GalNAc = biological target: Neu5Ac(b2-6)GalNAc
Method in brief: as §1

[28] = biological target: Neu5Ac9Ac(a2-3)Gal(b1-4)GlcNAc
Method in brief: as §1

[29] = biological target: Neu5Ac9Ac(a2-6)Gal(b1-4)GlcNAc
Method in brief: as §1

[30] = biological target: Neu5Gc(a2-3)Gal(b1-3)GlcNAc
Method in brief: as §1

[31] = biological target: Neu5Gc(a2-3)Gal(b1-3)[Fuc(a1-4)]GlcNAc
Method in brief: as §1

Neu5Gc(a2-3)Gal(b1-4)Glc = biological target: Neu5Gc(a2-3)Gal(b1-4)Glc
Method in brief: as §1

[32] = biological target: Neu5Gc(a2-3)Gal(b1-4)GlcNAc
Method in brief: as §1

[33] = biological target: Neu5Gc(a2-3)Gal(b1-4)GlcNAc(b1-3)Gal(b1-4)GlcNAc(b1-2)Man(a1-3)[Neu5Gc(a2-3)Gal(b1-4)GlcNAc(b1-3)Gal(b1-4)GlcNAc(b1-2)Man(a1-6)]Man(b1-4)GlcNAc(b1-4)GlcNAc
Method in brief: as §1

[34] = biological target: Neu5Gc(a2-3)Gal(b1-4)[Fuc(a1-3)]GlcNAc
Method in brief: as §1

[35] = biological target: Neu5Gc(a2-6)Gal(b1-4)GlcNAc
Method in brief: as §1

Neu5Gc(a2-6)GalNAc = biological target: Neu5Gc(a2-6)GalNAc
Method in brief: as §1

[36] = biological target: Neu5Gc(a2-8)Neu5Ac(a2-3)Gal(b1-4)GlcNAc
Method in brief: as §1

[37] = biological target: Neu5Gc(a2-8)Neu5Gc(a2-3)Gal(b1-4)GlcNAc
Method in brief: as §1

[38] = biological target: Neu5Gc(a2-8)Neu5Gc(a2-3)Gal(b1-4)GlcNAc(b1-3)Gal(b1-4)GlcNAc
Method in brief: as §1

[39] = biological target: Neu5Gc(a2-8)Neu5Gc(a2-6)Gal(b1-4)GlcNAc
Method in brief: as §1

[40] = biological target: Neu5Gc(b2-6)Gal(b1-4)GlcNAc
Method in brief: as §1

B1: Fm1D (Escherichia coli) (protein)
chain: FSCNVDGGSSIGAGTTSVYVNLDPVIQPGQNLVVDLSQHISCWNDYGGWYDTDHINLVQGSAFAGSLQSYKGSLYWNNVTYPFPLTTNTNVLDIGDKTPMPLPLKLYITPVGAAGGVVIKAGEVIARIHMYKIATLGSGNPRNFTWNIISNNSVVMPTHHHHHH
With B1 the “glycan array binding signal (z-score)” value [1] was -0.147, the “glycan array binding signal (z-score)” value [2] was -0.139 and the “glycan array binding signal (z-score)” value [3] was 11.5. For the same binder, the “glycan array binding signal (z-score)” value [4] was -0.141, the “glycan array binding signal (z-score)” value [5] was -0.144 and the “glycan array binding signal (z-score)” value [6] was -0.146. The “glycan array binding signal (z-score)” value [7] was -0.146, the “glycan array binding signal (z-score)” value [8] was -0.146 and the “glycan array binding signal (z-score)” value [9] was 3.09. The “glycan array binding signal (z-score)” value [10] was -0.131, the “glycan array binding signal (z-score)” value (Neu5Ac(a2-6)GalNAc) was -0.148 and the “glycan array binding signal (z-score)” value [11] was -0.144. The “glycan array binding signal (z-score)” value [12] was -0.148, the “glycan array binding signal (z-score)” value [13] was -0.147 and the “glycan array binding signal (z-score)” value [14] was -0.147. The “glycan array binding signal (z-score)” value (Neu5Ac(a2-8)Neu5Ac) was -0.144, the “glycan array binding signal (z-score)” value [15] was -0.149 and the “glycan array binding signal (z-score)” value [16] was -0.134. For the same binder, the “glycan array binding signal (z-score)” value [17] was -0.143, the “glycan array binding signal (z-score)” value [18] was -0.145 and the “glycan array binding signal (z-score)” value [19] was -0.147. For the same binder, the “glycan array binding signal (z-score)” value [20] was -0.149, the “glycan array binding signal (z-score)” value [21] was -0.147 and the “glycan array binding signal (z-score)” value [22] was -0.141. The “glycan array binding signal (z-score)” value [23] was -0.14, the “glycan array binding signal (z-score)” value [24] was -0.152 and the “glycan array binding signal (z-score)” value [25] was -0.146. The “glycan array binding signal (z-score)” value [26] was -0.15, the “glycan array binding signal (z-score)” value [27] was -0.142 and the “glycan array binding signal (z-score)” value (Neu5Ac(b2-6)GalNAc) was -0.145. For the same binder, the “glycan array binding signal (z-score)” value [28] was -0.15, the “glycan array binding signal (z-score)” value [29] was -0.147 and the “glycan array binding signal (z-score)” value [30] was -0.138. For the same binder, the “glycan array binding signal (z-score)” value [31] was -0.144, the “glycan array binding signal (z-score)” value (Neu5Gc(a2-3)Gal(b1-4)Glc) was -0.146 and the “glycan array binding signal (z-score)” value [32] was -0.146. The “glycan array binding signal (z-score)” value [33] was -0.139, the “glycan array binding signal (z-score)” value [34] was -0.148 and the “glycan array binding signal (z-score)” value [35] was -0.144. The “glycan array binding signal (z-score)” value (Neu5Gc(a2-6)GalNAc) was -0.143, the “glycan array binding signal (z-score)” value [36] was -0.149 and the “glycan array binding signal (z-score)” value [37] was -0.146. For the same binder, the “glycan array binding signal (z-score)” value [38] was -0.151, the “glycan array binding signal (z-score)” value [39] was -0.146 and the “glycan array binding signal (z-score)” value [40] was -0.143.
